Test results taken from PubChem BioAssay AID1671194 (National Center for Advancing Translational Sciences (NCATS), 2021).
The whole screen tested about 140,000 compounds, of which about 240 (0.17%) were called active. Inconclusive means that the source gave no clear call. Such entries were picked first, then a sample of the others. The call rests on the fitted dose curve; in most records, active means well fitted inhibition curve with a large enough effect; inconclusive means small, poorly fitted or top-dose-only effect; inactive means no such curve, though single readings can be large or run the other way. Where the call is inconclusive, the potency comes from a doubtful curve fit.

Experiment: Primary qHTS assay for inhibitors of alpha-synuclein gene (SNCA) expression; further: nearly all actives have a fitted effect of over 45% in size;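 on activity change, negative = inhibition: plate controls were DMSO cells for no effect and cell-free wells for full effect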
Conditions: HEK-293 SNCA-luciferase knock-in, luminescence, 24 h; activity change, negative = inhibition: at 57.2 µM (top of the series) unless noted
Potency means the concentration at half of the fitted maximal effect; tags describe the fitted curve by direction and shape.

Activity change, negative = inhibition, inactive:
CC(C)(C)CC(=O)Nc1nc2c(s1)C[C@@H]1[C@](C)(CO)[C@H](O)CC[C@@]1(C)[C@@H]2CC(=O)NC1CCCCC1 3.12%, O[C@H]1CCCC[C@@H]1NC1CCN(c2nc3ccc(Cl)cc3s2)CC1 34.8%, CC(C)c1noc(-c2cccn3c(CNC(=O)CC4CCCCC4)nnc23)n1 24.1%, O=C(Cc1c[nH]c2ncc(-c3cccnc3)cc12)Nc1ccccc1 56.7% [at 87.6 µM], COc1ccc(Cn2c(=O)c(C(=O)NCc3cccc(Cl)c3)nc3cccnc32)cc1 -8.88%, O=C(Cn1nc2n(c1=O)CCCC2)Nc1ccccc1 45.1%, O=C1CCC2(C(=O)NCc3ccc(F)cc3)CCCC=C2N1C1CCCC1 (stereo not drawn) 71%, Cc1csc(NC(=O)c2nc3c(o2)CCN(CC2CCCC2)CC3)n1 43.4% [at 87.6 µM], CNC(=O)N1CCC(C2CCN(C(=O)Cc3ccccc3)C2)CC1 (stereo not drawn) 38.1%, Cc1cc(CNC(=O)c2cc(-c3ccccc3)cc3c2OCCN3C)no1 -20.9% [at 87.6 µM], O=C(NC1CCOCC1)c1ccc2c(c1)OCCN(c1ccccc1)C2 -14.7% [at 87.6 µM], CN1Cc2ncnc(NCCc3ccccc3F)c2CN(c2ccccc2)C1=O -17.2%, CC(C)(C)CN1CCOC[C@H]1c1ncc(-c2ccc(Cl)cc2)[nH]1 4.36% [at 87.6 µM], O=C(NCc1ccccc1)c1cc(-c2ccc(Cl)cc2Cl)c2nncn2n1 12.1%, CC(=O)N1CCCC(C(=O)N2CCC3(CC2)C(=O)N(C)c2ccccc23)C1 (stereo not drawn) 12.5%, N#Cc1cccc(-c2cn3c(n2)N(C(=O)C2CCCO2)CCC3)c1 (stereo not drawn) 22%, Cn1ncc2c(C(=O)NCCc3ccccc3F)cc(-c3ccsc3)nc21 -16.1%

Potency, active:
CCOc1ccc(N(Cc2ccccc2)C(=O)c2nc(S(C)(=O)=O)ncc2Cl)cc1 6.31 µM, O=C(CSCc1ccc(F)cc1)N1CCc2c([nH]c3ccccc23)C1c1ccc(Cl)cc1 (stereo not drawn) 10 µM

Potency, inconclusive:
CCOc1ccc(NC(=O)CN(Cc2ccccc2)S(=O)(=O)c2ccc3nc(C)sc3c2)cc1 39.8 µM [inhibitor, single point], Cc1cccc(N2CCN(C(=O)C3CCN(C(=O)c4cc5sccc5n4C)CC3)CC2C)c1 (stereo not drawn) 39.8 µM [inhibitor, single point], O=C(NCCc1ccncc1)c1cccc2c1CCN2C(=O)Nc1ccc(F)cc1 10 µM [inhibitor, partial curve, poor fit], Cc1ccc(S(=O)(=O)NC(=O)NN2CC3CCCC3C2)cc1 (stereo not drawn) 15.2 µM [inhibitor, partial curve, poor fit], CSc1nn(Cc2ccc(C)cc2)c(N)c1S(=O)(=O)c1ccccc1 39.8 µM [inhibitor, single point], O=C(Cc1ccccc1)NCC1CN(Cc2ccc(C(=O)O)cc2)CC12CN(c1ccccc1)C2 (stereo not drawn) 3.98 µM [inhibitor, single point], O=C(CC1CCCN(c2cnn(CC3CC3)c(=O)c2)C1)NCCN1CCCCC1 (stereo not drawn) 6.31 µM [inhibitor, single point], CN(CC1(C)CCOCC1)C(=O)NC(C)(C)C 12.6 µM [inhibitor, partial curve, poor fit], CCc1nc2c(c(-c3ccc(O)cc3)n1)CN(CCC(C)C)CC2 12.6 µM [inhibitor, partial curve, poor fit], CCOc1cccc2sc(N(Cc3cccnc3)C(=O)c3ccc(C#N)cc3)nc12 39.8 µM [inhibitor, single point], OCC1(CN2CCCC2)CCN(Cc2cc(F)cc(Cl)c2)CC1 39.8 µM [inhibitor, single point], O=C(NCc1ccccc1Cl)c1ccc2oc(=O)n(Cc3ccccc3)c2c1 39.8 µM [inhibitor, single point], CN(Cc1cccc(F)c1)Cc1cccn1C 17.8 µM [inhibitor, full curve, poor fit], COc1ccccc1-c1ccc(CN2CCC(NC(=O)Cc3ccc(F)cc3)C2)cc1 (stereo not drawn) 1.58 µM [inhibitor, single point], CC1(C(=O)NCC2CC2)CCCc2cnc(NCc3ccccc3)nc21 (stereo not drawn) 35.5 µM [inhibitor, partial curve, poor fit], Cc1ccc(-n2c(Cc3ccccc3)nnc2SCc2nc(-c3cccs3)no2)cc1C 39.8 µM [inhibitor, single point], CCOC(=O)C1CCCN(Cc2cn3c(-c4cccc(Br)c4)nnc3s2)C1 (stereo not drawn) 4.47 µM [inhibitor, single point], Cc1cccc(N2CCN(C(=O)CS(=O)(=O)Cc3nc(-c4ccccc4C)oc3C)CC2C)c1 (stereo not drawn) 39.8 µM [inhibitor, single point], COc1ccc(F)cc1-c1cccc(C(=O)NCCNC(=O)c2ccc(C)cc2)c1 17.8 µM [inhibitor, single point], O=C(C1CCN(c2nccc(Nc3ccccc3Cl)n2)CC1)N1CCN(Cc2ccccc2)CC1 11.2 µM [inhibitor, partial curve, poor fit], O=S(=O)(NCc1nc2cccnc2n1Cc1ccccc1Cl)c1ccc(F)c(Cl)c1 39.8 µM [inhibitor, single point], CC(=O)c1c(C)oc2c1cc(NS(=O)(=O)c1ccc(Cl)c(C)c1)c1ccccc12 22.4 µM [inhibitor, partial curve, poor fit], CCN1CCN(C(=O)N[C@H](C(=O)N[C@@H]2C(=O)N3C(C(=O)O)=C(CSc4nnnn4C)CS[C@@H]23)c2ccc(O)cc2)C(=O)C1=O 3.87 µM [inhibitor, single point], OCCC1CN(Cc2cc(F)cc(F)c2)CCN1Cc1cccs1 (stereo not drawn) 5.01 µM [inhibitor, single point], CCC(C(=O)Nc1cc(F)ccc1F)n1nc(C)c2c(C)n(-c3ccc(C)cc3)nc2c1=O (stereo not drawn) 14.1 µM [inhibitor, partial curve, poor fit], COCCNC(=O)C1(C)CN(Cc2ccccc2)Cc2ccc(NCC(C)C)nc21 (stereo not drawn) 31.6 µM [inhibitor, partial curve, poor fit], CC[C@H]1CN(C(=O)Nc2cccc(C(F)(F)F)c2)CC[C@H]1CC(=O)NC1CC1 22.4 µM [inhibitor, partial curve, poor fit], Cc1ccc(CNC(=O)c2ccc3c(c2)CN(C2CCC2)CCO3)cc1 22.4 µM [inhibitor, single point], O=C(Cc1c(F)cccc1Cl)NC1CCN(c2cc(-c3ccccc3)[nH]n2)CC1 0.708 µM [inhibitor, full curve, poor fit], COc1ccc(F)cc1-c1cccc(C(=O)NCCNC(=O)C2CCCC2)c1 20 µM [inhibitor, single point], Cc1ccccc1NC(=O)Cn1c(=O)n(Cc2ccccc2)c(=O)c2c(C)c(C)sc21 3.98 µM [inhibitor, single point], Cc1ccc(SCc2nc(-c3ccc(C(=O)NCCc4ccc(Cl)cc4)cc3)oc2C)cc1 39.8 µM [inhibitor, single point], CCN(CC)CCOc1ccc(Cc2ccccc2)cc1 3.41 µM [inhibitor, full curve, poor fit], COc1ccc2c(CNCCc3cccs3)c(C(=O)O)n(Cc3ccc(F)cc3Cl)c2c1 39.8 µM [inhibitor, single point], CCCCN1CC(c2nc3ccccc3n2CCCCOc2cccc(C)c2C)CC1=O (stereo not drawn) 39.8 µM [inhibitor, partial curve, poor fit], COCCNC(=O)N1CCc2nc(N3CCN(C)CC3)sc2C1 8.91 µM [inhibitor, single point], O=C(CC(c1cccc(F)c1)c1cn(Cc2ccccc2)c2ccc([N+](=O)[O-])cc12)N1CCCC1 (stereo not drawn) 39.8 µM [inhibitor, single point], O=C(N[C@@H]1CN(C(=O)NC2CCCCC2)CCC[C@H]1O)c1ccc(OCc2ccccc2)cc1 1.26 µM [inhibitor, full curve, poor fit], COc1ccccc1CNC(=O)c1c[nH]c2ccc(S(=O)(=O)Nc3cc(C)cc(C)c3)cc2c1=O 14.1 µM [inhibitor, single point], O=C(CN1CCOc2c(O)cc(-c3csc4ccccc34)cc2C1)N1CCOCC1 31.6 µM [inhibitor, single point], CCNS(=O)(=O)c1ccc(NC(=O)CSc2nc(-c3ccco3)cc(C(F)(F)F)n2)cc1 0.178 µM [inhibitor, single point], CCN(CC)C(=O)[C@@H](C)C1CC[C@@]2(C)CC[C@H](NC(=O)COc3ccccc3)[C@@H](C)[C@@H]2[C@H]1O (stereo partly drawn) 14.1 µM [inhibitor, single point], CNC(=O)[C@@H]1CN(Cc2ccc(Br)cc2F)C[C@H]1CO 39.8 µM [inhibitor, single point], CCNc1cc(N2CCC(CCC(=O)N3CCN(c4ncccn4)CC3)CC2)ncn1 1.12 µM [inhibitor, partial curve, poor fit]
